Legend:
CotB2 (CotB2^wt) [1] = target: T1, CotB2 (CotB2^wt) (Streptomyces melanosporofaciens, UniProt C9K1X5); assay: X-ray crystal structure, […] A, co-crystallisation with FGGDP; type: binding; conditions: Mg2+ (three ions), pH 7.5; active site, closed state; formed in crystallo from FGGDP
T1 construct: C-terminal His6 tag, pET-24a, expressed in E. coli Rosetta2 (DE3)
T1 sequence (C9K1X5 1-307): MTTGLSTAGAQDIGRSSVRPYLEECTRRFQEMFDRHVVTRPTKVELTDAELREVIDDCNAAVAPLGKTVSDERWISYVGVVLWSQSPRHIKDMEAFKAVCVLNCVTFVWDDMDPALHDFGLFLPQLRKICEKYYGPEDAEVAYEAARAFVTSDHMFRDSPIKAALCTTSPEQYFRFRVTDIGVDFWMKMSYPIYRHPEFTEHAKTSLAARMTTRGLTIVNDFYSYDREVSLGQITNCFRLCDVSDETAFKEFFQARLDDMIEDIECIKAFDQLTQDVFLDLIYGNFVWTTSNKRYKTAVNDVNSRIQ

CotB2 (CotB2^wt) [2] = target: T1, CotB2 (CotB2^wt); assay: co-crystallisation; turnover in crystallo; type: binding; conditions: Mg2+, pH 7.5; cyclised in crystallo, seen only as F-Dola plus diphosphate
From the text: Instead, we detected clearly resolved electron density

CotB2 (CotB2^wt) [3] = target: T1, CotB2 (CotB2^wt); assay: GC/MS product formation; type: cell-based; conditions: turnover to cyclooctat-9-en-7-ol; assay format not told in main text

C=C(C)[C@@H]1CC[C@]2(C)C/C(F)=C(\C)CC/C=C(/C)CC[C@H]12 [F-Dola, 2-fluoro-3,7,18-dolabellatriene]
X-ray crystal structure, 1.8 A, co-crystallisation with FGGDP (CotB2 (CotB2^wt) [1]): ring-like structure positioned in the active site that we interpret as the reaction intermediate

CC(C)=CCC/C(C)=C/CC/C(C)=C/CC/C(C)=C(\F)COP(=O)(O)OP(=O)(O)O [FGGDP]
co-crystallisation; turnover in crystallo (CotB2 (CotB2^wt) [2]): we did not observe the entire FGGDP molecule. Instead, we detected clearly resolved electron density

CC(C)=CCC/C(C)=C/CC/C(C)=C/CC/C(C)=C/COP(=O)(O)OP(=O)(O)O [GGDP, geranylgeranyl diphosphate]
GC/MS product formation (CotB2 (CotB2^wt) [3]): GC/MS spectrum to monitor product formation by CotB2^wt (black) and CotB2^ΔC (red)

From article PMC6162201, “Towards a comprehensive understanding of the structural dynamics of a bacterial diterpene synthase during catalysis” (Nature Communications, 2018)
